# According to paper PMC9911399, “Two distinct binding modes provide the RNA-binding protein RbFox with extraordinary sequence specificity”:
# Positions count from the first letter of the chain named. The list shows a part of the results.
# T1: RBFOX1 RRM RbFoxmut (Fox-RRM*) (Homo sapiens, UniProt Q9NWB1 109-208, R118D;E147R;N151S;E152T)
# T1 sequence: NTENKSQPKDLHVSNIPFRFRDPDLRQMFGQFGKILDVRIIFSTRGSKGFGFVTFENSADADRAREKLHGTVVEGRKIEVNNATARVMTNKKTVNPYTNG
# B1: UGAACGG (DNA:RNA)
# RNA: GGGAGACCGGAAUUCAGAUUGUCCUGAACGGUUAAAUCCCGUCGUAGCCACCA
# DNA 1: CAATCTGAATTCCGGTCTCCC
# DNA 2: TGGTGGCTACGACGGGATT
# B2: UGGGCAU (DNA:RNA)
# RNA: B1 RNA with A27G, A28G, G30A, G31U
# DNA 1: CAATCTGAATTCCGGTCTCCC
# DNA 2: TGGTGGCTACGACGGGATT
# B3: CGACACA (DNA:RNA)
# RNA: B1 RNA with U25C, A28C, C29A, G30C, G31A
# DNA 1: CAATCTGAATTCCGGTCTCCC
# DNA 2: TGGTGGCTACGACGGGATT
# B4: UUGUAUG (DNA:RNA)
# RNA: B1 RNA with G26U, A27G, A28U, C29A, G30U
# DNA 1: CAATCTGAATTCCGGTCTCCC
# DNA 2: TGGTGGCTACGACGGGATT
# B5: GUUGCCC (DNA:RNA)
# RNA: B1 RNA with U25G, G26U, A27U, A28G, G30C, G31C
# DNA 1: CAATCTGAATTCCGGTCTCCC
# DNA 2: TGGTGGCTACGACGGGATT
# B6: CUAUAAC (DNA:RNA)
# RNA: B1 RNA with U25C, G26U, A28U, C29A, G30A, G31C
# DNA 1: CAATCTGAATTCCGGTCTCCC
# DNA 2: TGGTGGCTACGACGGGATT
# B7: CACCCCU (DNA:RNA)
# RNA: B1 RNA with U25C, G26A, A27C, A28C, G30C, G31U
# DNA 1: CAATCTGAATTCCGGTCTCCC
# DNA 2: TGGTGGCTACGACGGGATT
# B8: UCCCUGA (DNA:RNA)
# RNA: B1 RNA with G26C, A27C, A28C, C29U, G31A
# DNA 1: CAATCTGAATTCCGGTCTCCC
# DNA 2: TGGTGGCTACGACGGGATT
# B9: GGGCACC (DNA:RNA)
# RNA: B1 RNA with U25G, A27G, A28C, C29A, G30C, G31C
# DNA 1: CAATCTGAATTCCGGTCTCCC
# DNA 2: TGGTGGCTACGACGGGATT
# B10: CGGACUU (DNA:RNA)
# RNA: B1 RNA with U25C, A27G, G30U, G31U
# DNA 1: CAATCTGAATTCCGGTCTCCC
# DNA 2: TGGTGGCTACGACGGGATT
# B11: UACUCGC (DNA:RNA)
# RNA: B1 RNA with G26A, A27C, A28U, G31C
# DNA 1: CAATCTGAATTCCGGTCTCCC
# DNA 2: TGGTGGCTACGACGGGATT
# B12: GUUAAGA (DNA:RNA)
# RNA: B1 RNA with U25G, G26U, A27U, C29A, G31A
# DNA 1: CAATCTGAATTCCGGTCTCCC
# DNA 2: TGGTGGCTACGACGGGATT
# B13: CACAUCG (DNA:RNA)
# RNA: B1 RNA with U25C, G26A, A27C, C29U, G30C
# DNA 1: CAATCTGAATTCCGGTCTCCC
# DNA 2: TGGTGGCTACGACGGGATT
# B14: CUAAGAU (DNA:RNA)
# RNA: B1 RNA with U25C, G26U, C29G, G30A, G31U
# DNA 1: CAATCTGAATTCCGGTCTCCC
# DNA 2: TGGTGGCTACGACGGGATT
# B15: UUUAUUU (DNA:RNA)
# RNA: B1 RNA with G26U, A27U, C29U, G30U, G31U
# DNA 1: CAATCTGAATTCCGGTCTCCC
# DNA 2: TGGTGGCTACGACGGGATT
# B16: CAUUGCC (DNA:RNA)
# RNA: GGGAGACCGGAAUUCAGAUUGUCCCAUUGCCUUAAAUCCCGUCGUAGCCACCA
# DNA 1: CAATCTGAATTCCGGTCTCCC
# DNA 2: TGGTGGCTACGACGGGATT
# B17: AAUCCGC (DNA:RNA)
# RNA: B16 RNA with C25A, U28C, G29C, C30G
# DNA 1: CAATCTGAATTCCGGTCTCCC
# DNA 2: TGGTGGCTACGACGGGATT
# B18: UCUCUAG (DNA:RNA)
# RNA: B1 RNA with G26C, A27U, A28C, C29U, G30A
# DNA 1: CAATCTGAATTCCGGTCTCCC
# DNA 2: TGGTGGCTACGACGGGATT
# B19: UGACUAU (DNA:RNA)
# RNA: B1 RNA with A28C, C29U, G30A, G31U
# DNA 1: CAATCTGAATTCCGGTCTCCC
# DNA 2: TGGTGGCTACGACGGGATT
# B20: UGAUGGC (DNA:RNA)
# RNA: B1 RNA with A28U, C29G, G31C
# DNA 1: CAATCTGAATTCCGGTCTCCC
# DNA 2: TGGTGGCTACGACGGGATT
# B21: CAGUUUA (DNA:RNA)
# RNA: B16 RNA with U27G, G29U, C30U, C31A
# DNA 1: CAATCTGAATTCCGGTCTCCC
# DNA 2: TGGTGGCTACGACGGGATT
# B22: AGGCGUU (DNA:RNA)
# RNA: B16 RNA with C25A, A26G, U27G, U28C, C30U, C31U
# DNA 1: CAATCTGAATTCCGGTCTCCC
# DNA 2: TGGTGGCTACGACGGGATT
# B23: GGGGCCU (DNA:RNA)
# RNA: B1 RNA with U25G, A27G, A28G, G30C, G31U
# DNA 1: CAATCTGAATTCCGGTCTCCC
# DNA 2: TGGTGGCTACGACGGGATT
# B24: CCUAUGA (DNA:RNA)
# RNA: B16 RNA with A26C, U28A, G29U, C30G, C31A
# DNA 1: CAATCTGAATTCCGGTCTCCC
# DNA 2: TGGTGGCTACGACGGGATT
# B25: AUGGGUC (DNA:RNA)
# RNA: B16 RNA with C25A, A26U, U27G, U28G, C30U
# DNA 1: CAATCTGAATTCCGGTCTCCC
# DNA 2: TGGTGGCTACGACGGGATT
# B26: GGGGCGA (DNA:RNA)
# RNA: B1 RNA with U25G, A27G, A28G, G31A
# DNA 1: CAATCTGAATTCCGGTCTCCC
# DNA 2: TGGTGGCTACGACGGGATT
# B27: ACACUGC (DNA:RNA)
# RNA: B1 RNA with U25A, G26C, A28C, C29U, G31C
# DNA 1: CAATCTGAATTCCGGTCTCCC
# DNA 2: TGGTGGCTACGACGGGATT
# B28: CAAUGGC (DNA:RNA)
# RNA: B16 RNA with U27A, C30G
# DNA 1: CAATCTGAATTCCGGTCTCCC
# DNA 2: TGGTGGCTACGACGGGATT
# B29: CCACCUU (DNA:RNA)
# RNA: B1 RNA with U25C, G26C, A28C, G30U, G31U
# DNA 1: CAATCTGAATTCCGGTCTCCC
# DNA 2: TGGTGGCTACGACGGGATT
# B30: CUGAGCC (DNA:RNA)
# RNA: B16 RNA with A26U, U27G, U28A
# DNA 1: CAATCTGAATTCCGGTCTCCC
# DNA 2: TGGTGGCTACGACGGGATT
# B31: CAAUCCG (DNA:RNA)
# RNA: B16 RNA with U27A, G29C, C31G
# DNA 1: CAATCTGAATTCCGGTCTCCC
# DNA 2: TGGTGGCTACGACGGGATT
# Target: T1, RBFOX1 RRM RbFoxmut (Fox-RRM*)
# Test: EMSA; HiTS-Eq, 1 nM pool, 10 min; buffer printed only for the single-RNA assays: 10 mM Tris pH 7.5, 150 mM NaCl, 3.4 mM EDTA, 0.001% NP-40, 30 C
# Conditions: tags: His6 N-terminal (pET28a); label: 5' 32P
# In short: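 Purified RbFox RRM (wild type or mutant) was equilibrated for 10 min in 50 µL with 1 nM of a 5′-radiolabelled pool of RNA with 7 randomized nucleotides, its flanks annealed to DNA oligonucleotides, across increasing protein concentrations. Free RNA was separated by 8% native PAGE, excised, reverse-transcribed, PCR-barcoded and sequenced on an Illumina HiSeq 2500. Relative association constants came from read-count changes of each variant against the control reaction, normalised to the cognate motif.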
row,Binder,binding signal
1,B1,0.106 KA relative to UGCAUGU
2,B2,0.113 KA relative to UGCAUGU
3,B3,0.0793 KA relative to UGCAUGU
4,B4,1.24 KA relative to UGCAUGU
5,B5,0.0668 KA relative to UGCAUGU
6,B6,0.0637 KA relative to UGCAUGU
7,B7,0.0705 KA relative to UGCAUGU
8,B8,0.103 KA relative to UGCAUGU
9,B9,0.11 KA relative to UGCAUGU
10,B10,0.0634 KA relative to UGCAUGU
11,B11,0.0793 KA relative to UGCAUGU
12,B12,0.0747 KA relative to UGCAUGU
13,B13,0.108 KA relative to UGCAUGU
14,B14,0.085 KA relative to UGCAUGU
15,B15,0.116 KA relative to UGCAUGU
16,B16,0.374 KA relative to UGCAUGU

row,Binder,binding signal
1,B17,0.066 KA relative to UGCAUGU
2,B18,0.0937 KA relative to UGCAUGU
3,B19,0.0671 KA relative to UGCAUGU
4,B20,0.0965 KA relative to UGCAUGU
5,B21,0.125 KA relative to UGCAUGU
6,B22,0.0923 KA relative to UGCAUGU
7,B23,0.118 KA relative to UGCAUGU
8,B24,0.126 KA relative to UGCAUGU
9,B25,0.167 KA relative to UGCAUGU
10,B26,0.132 KA relative to UGCAUGU
11,B27,0.0764 KA relative to UGCAUGU
12,B28,0.102 KA relative to UGCAUGU
13,B29,0.0833 KA relative to UGCAUGU
14,B30,0.135 KA relative to UGCAUGU
15,B31,0.0569 KA relative to UGCAUGU
